Test results published in PubChem BioAssay AID463173 (ICCB-Longwood Screening Facility, Harvard Medical School, 2010).
Screen size: about 52,000 compounds; about 1,700 (3.3%) were called active. Cut-off read from the data, not from the text of the source: active = survival mostly below about 52% (no sharp cut-off); inactive = mostly above about 56%. Some of the results follow.

System: Wild type
Experiment: growth inhibition of S. aureus wild type versus tarO mutant, primary screen, teichoic acid synthesis inhibitors, RN4220, OD600 (AID 463173)
Details: S. aureus RN4220 wild type/DeltatarO growth, OD600, 18 h, hits give low values, screened at 18.75 µg/mL (by protocol)

Row | Structure (SMILES) | survival
1 | Cc1ccc2cc(CN(Cc3cccnc3)C(=O)c3cccnc3)c(=O)[nH]c2c1 | inactive: 108%
2 | COc1ccc(S(=O)(=O)NCc2ccc3c(c2)CCN3C(C)=O)cc1OC | inactive: 84%
3 | CCOc1ccc(CN2C(=O)c3ccccc3Sc3ccc(C(=O)NCCCN4CCOCC4)cc32)cc1 | inactive: 145%
4 | Cc1ccc(NC(=O)CCS(=O)(=O)c2ccc3nc(C)sc3c2)c(C)c1 | inactive: 102%
5 | O=C(Nc1ccc(Cl)c(Cl)c1)N(Cc1c[nH]c2ccccc12)C1CCCCC1 | inactive: 86%
6 | CCOc1ccc(S(=O)(=O)N(CC(=O)NCCc2ccc(OC)cc2)c2ccccc2)cc1 | inactive: 101%
7 | COc1ccccc1N1CCN(c2c(CN3CCCC3)c(=O)oc3ccccc23)CC1 | inactive: 77%
8 | CN(C)c1ncc(C(=O)NCc2ccccc2Cl)cn1 | inactive: 64%
9 | CCOc1ccc(C(=O)Nc2ccc(NC(=O)c3ccccc3)cc2)cc1Br | inactive: 79%
10 | CCOC(=O)c1ccc(N2CCN(c3ccc(F)cc3)CC2)c(NC(=O)Nc2ccc(CC)cc2)c1 | inactive: 131%
11 | COC(=O)c1ccc([C@H]2Nc3ccc(S(=O)(=O)Nc4ccc(F)cc4)cc3[C@H]3C=CC[C@H]32)cc1 | inactive: 69%
12 | Cc1ccc(S(=O)(=O)N2CCCc3cc(NS(=O)(=O)c4ccccc4)ccc32)cc1 | inactive: 77%
13 | Cc1cc(OCC(=O)Nc2sc3c(c2C#N)CCC(C)C3)ccc1Cl (centres undefined) | inactive: 73%
14 | O=C(c1ccco1)N1CCN(C2c3cccc4cccc(c34)C2NS(=O)(=O)c2ccccc2)CC1 (centres undefined) | inactive: 115%
15 | Cc1ccc2[nH]c(=O)c3cc(C(=O)NCc4cccc(Cl)c4)sc3c2c1 | inactive: 72%
16 | CCOC(=O)CNC(=O)Nc1cc(C(=O)NCc2ccc(C(C)C)cc2)ccc1N1CCCC1 | inactive: 78%
17 | Cc1cc(C)c(/C=C/c2onc(C)c2S(=O)(=O)N2CCC(C(=O)Nc3cccc(C)c3C)CC2)c(C)c1 | inactive: 125%
18 | COc1ccccc1-c1noc(CSc2nnc(-c3ccccc3)n2-c2ccc(C)c(C)c2)n1 | inactive: 81%
19 | CCOC(=O)c1c(C)oc2nc(C)nc(N(C)Cc3ccccc3)c12 | inactive: 125%
20 | CC(=O)c1ccc(NC(=O)CSc2nc(-c3ccccc3C)nc3c2c(=O)n(C)c(=O)n3C)cc1 | inactive: 121%
21 | O=C(C1CCCN(S(=O)(=O)c2cccc3nonc23)C1)N1CCN(c2cccc(C(F)(F)F)c2)CC1 (centres undefined) | inactive: 77%
22 | CCc1cc2cc3c(cc2nc1SCC(=O)N1CCCCC1)OCO3 | inactive: 102%
23 | O=C(CSc1ncc(-c2ccc(Cl)cc2)[nH]1)Nc1ccccc1F | inactive: 64%

Row | Structure (SMILES) | survival
24 | CCOc1ccc(C(=O)c2cn(Cc3cccc(OC)c3)c3cc4c(cc3c2=O)OCO4)cc1 | inactive: 86%
25 | Cc1ccc(S(=O)(=O)N2CCCC2C(=O)Nc2ccc(Br)cc2)cc1 (centres undefined) | inactive: 112%
26 | COc1cc2c(cc1OC)C(CC(=O)O)N(C(=O)Nc1cc(OC)c(OC)c(OC)c1)CC2 (centres undefined) | inactive: 77%
27 | Cc1cc(C)c2c(n1)sc1c(Cl)ncnc12 | inactive: 109%
28 | Cn1c(SCCN2CCCC2)nnc1-c1ccncc1 | inactive: 112%
29 | Cc1ccc(C)c(N2CCN(CCCNC(=O)c3ccc4nc(N5CCC(C)CC5)sc4c3)CC2)c1 | active: 1%
30 | CCc1ccc(C2=NN(CCC(=O)NCCc3ccccc3)C(=O)CC2)cc1 | inactive: 78%
31 | Cc1ccc(-n2cnc3ccccc3c2=O)cc1Cl | inactive: 91%
32 | CCOC(=O)C1=C(C)NC(=O)C1CC(=O)O (centres undefined) | inactive: 98%
33 | CCc1c(C)c2cc3c(c(C)c2oc1=O)OCN(CCc1ccc(OC)c(OC)c1)C3 | inactive: 82%
34 | CC(=O)c1ccc(Nc2cc(C)nc3nc(Cc4ccccc4)nn23)cc1 | inactive: 82%
35 | CCc1cccc(NC(=O)C(Cc2ccccc2)NS(=O)(=O)c2cccs2)c1 (centres undefined) | inactive: 56%
36 | COc1ccc(-n2c(=O)c3c4c(sc3n(Cc3ccccc3C)c2=O)CCCC4)c(OC)c1 | inactive: 61%
37 | COc1ccc(N(CC(=O)NCCc2ccccc2)S(=O)(=O)c2c(C)nn(C)c2C)cc1 | inactive: 114%
38 | CCOc1nc(NCCO)nc(NCCC2=CCCCC2)n1 | inactive: 104%
39 | CCCn1c2ccccc2c2cnn(CC(=O)Nc3cc(OC)c(OC)c(OC)c3)c(=O)c21 | inactive: 123%
40 | Cc1ccc(N2CCN(C(=O)Cn3ncc4c([nH]c5ccc(C)cc54)c3=O)CC2)c(C)c1 | inactive: 71%
41 | CCC1(C)CC(=O)c2c(ccc3oc(C(=O)Nc4ccc(C(C)=O)cc4)c(C)c23)O1 (centres undefined) | inactive: 93%
42 | CCOc1ccc(C(=O)NCCc2csc(-c3cccc(C)c3)n2)cc1 | inactive: 78%
43 | COc1ccc(C(=O)OCC(=O)c2ccc(C)cc2)cc1OC | inactive: 122%
44 | CC(C)c1ccc(Nc2sc(C(=O)c3ccccc3)c(N)c2S(=O)(=O)c2ccccc2)cc1 | inactive: 79%
45 | CCc1nc2ccc(C(=O)N3CCN(c4cccc(Cl)c4)CC3)cc2nc1CC | inactive: 85%
46 | CC(C)CC(=O)Nc1nnc(S(=O)(=O)N2c3ccccc3CC2C)s1 (centres undefined) | inactive: 86%

Row | Structure (SMILES) | survival
47 | CSc1nnc(COc2ccc(Cl)cc2)n1C | inactive: 101%
48 | CCOc1ccc(CCNC(=O)CCCn2c(=O)c3cccn3c3cccnc32)cc1 | inactive: 97%
49 | COc1ccc(C2CCN(C(=O)N(C(C)C)C(C)C)CC2)cc1 | inactive: 111%
50 | OC(CNCC1CCCO1)Cn1c2ccccc2c2ccccc21 (centres undefined) | inactive: 113%
51 | CCOCCOC(=O)c1ccc2c(c1)N(Cc1ccccc1C#N)C(=O)c1ccccc1S2(=O)=O | inactive: 80%
52 | CCN(c1ccccc1)S(=O)(=O)c1ccc(NC(=O)c2nc(S(C)(=O)=O)ncc2Cl)cc1 | active: 0%
53 | CCc1ccc(C(=O)COC(=O)C(NC(=O)C2CCC(C)CC2)C(C)C)cc1 (centres undefined) | inactive: 82%
54 | COc1cc(CNC(=O)c2cnc3c(-c4cccc(C)c4)c(C)nn3c2C)cc(OC)c1OC | inactive: 74%
55 | COc1ccc(-c2cc3ccc(O)c(CN4CCN(C)CC4)c3oc2=O)cc1OC | inactive: 120%
56 | CCCc1ccc(OCC(=O)Nc2sc3c(c2C(=O)OCC)CCC(C(C)(C)C)C3)cc1 (centres undefined) | inactive: 117%
57 | CC(=O)Nc1ccc(Nc2ccc3cc(S(=O)(=O)N4CCCCC4)ccc3n2)cc1 | inactive: 67%
58 | O=C(NC1CC(=O)N(c2ccc(Cl)cc2)C1)c1cc2ccccc2o1 (centres undefined) | inactive: 64%
59 | Nc1cc(=O)nc(SCC(=O)Nc2ccccc2)n1CCc1ccccc1 | inactive: 69%
60 | Cc1cccc(CNS(=O)(=O)c2ccc(-c3coc(C)n3)cc2)c1 | inactive: 78%
61 | CCOC(=O)c1c(-c2ccc(OC)c(OC)c2)csc1NC(=O)c1ccccc1F | inactive: 67%
62 | COc1ccccc1Nc1nc(-c2ccccc2)c(CC(=O)O)s1 | inactive: 54%
63 | COc1ccc2c(c1)c1c(c(=O)n(-c3cccc(C)c3)c(=O)n1CC(=O)NCCC1=CCCCC1)n2C | inactive: 74%
64 | O=c1c2cccnc2n(Cc2cccc(F)c2)c(=O)n1Cc1ccc(F)cc1 | inactive: 116%
65 | CCC(Nc1ccc(-c2nc(-c3cccnc3)no2)cc1[N+](=O)[O-])c1ccccc1 (centres undefined) | inactive: 83%
66 | COc1ccc2[nH]cc(CCNC(=O)Nc3cc(C)cc(C)c3)c2c1 | inactive: 124%
67 | Cc1ccc2nc3c(cc(C(=O)NC4CCCC4)c(=N)n3C(C)C)c(=O)n2c1 | inactive: 80%
68 | O=C(O)CCn1cnc2sc3c(c2c1=O)CCCC3 | inactive: 80%
69 | O=C1Cc2cc(S(=O)(=O)Nc3ccc(OC(F)(F)F)cc3)cc3c2N1CCC3 | inactive: 148%

Row | Structure (SMILES) | survival
70 | Cc1ccccc1NC(=O)C1C2CCCCC21 (centres undefined) | inactive: 110%
71 | Cc1ccccc1OCC(=O)Nc1ccc2nc(SCC(=O)N3CCCC3)sc2c1 | inactive: 48%
72 | COc1ccc(S(=O)(=O)c2nnn(-c3cccc(Cl)c3)c2N)cc1 | inactive: 69%
73 | CCOC(=O)c1cc(-c2ccc(OC)c(S(=O)(=O)N3CCN(c4ccccc4)CC3)c2)on1 | inactive: 69%
74 | COCCn1ccc2c(OCC(=O)Nc3cccc(C(F)(F)F)c3)cccc2c1=O | inactive: 78%
75 | COc1ccc(N2CC(NC(=O)C(c3ccccc3)c3ccccc3)CC2=O)cc1 (centres undefined) | inactive: 91%
76 | COc1cccc(CNC(=O)c2ccc3c(c2)sc2nc(-c4cccc(OC)c4)cn23)c1 | inactive: 74%
77 | CCOC(=O)c1c(S(=O)(=O)N2CCC(C(=O)NCc3ccccc3Cl)CC2)c(C)n(C)c1C | inactive: 83%
78 | Cc1cccc(N2CCN(C(=O)c3cnn(-c4ccccc4)c3C3CCN(C(=O)OC(C)(C)C)CC3)CC2)c1C | inactive: 72%
79 | CCOC(=O)c1c(NC(=O)C(C)Sc2cn(CCNC(=O)c3ccc(OCC)cc3)c3ccccc23)sc2c1CCC2 (centres undefined) | inactive: 79%
80 | CCOC(=O)c1ccc(NC(=O)Cn2nc(C)c3nn(-c4ccc(Cl)cc4)c(C)c3c2=O)cc1 | inactive: 81%
81 | O=C1c2ccccc2NC(c2ccncc2)N1c1ccccn1 (centres undefined) | inactive: 103%
82 | CCc1nc2nc(C)cc(Nc3cc(C)ccc3C)n2n1 | inactive: 73%
83 | Cc1ccc(Nc2ncnc3c2nc2n3CCCC2)cc1F | inactive: 67%
84 | Clc1ccc(CSc2nncn3c2cc2occc23)cc1 | inactive: 66%
85 | COc1ccccc1CNC(=O)C1CCN(S(=O)(=O)Cc2ccccc2)CC1 | inactive: 100%
86 | Cc1nc2nc[nH]n2c(=O)c1NS(=O)(=O)c1ccc(Br)cc1 | inactive: 84%
87 | CC1=C(c2ccc(Cl)cc2)S(=O)(=O)N=C1N1CCN(c2cc(C)ccc2C)CC1 | inactive: 116%
88 | Cn1c(O)c(N=NC(=S)Nc2ccccc2)c2ccccc21 | inactive: 121%
89 | CCCN1CCCc2cc(CN(CCCN3CCOCC3)C(=O)Nc3ccc(Cl)c(Cl)c3)ccc21 | inactive: 87%
